# Source: the supplement of paper PMC8728848
# The list shows a part of the results.
# B1: PX14343A-bvu-539-29-539 (Bacteroides vulgatus) (protein)
# chain: DSLTESSSNTFWQTPDDALMALASCYDALQSNQLYNSDQYSLGPLYMDCISDNGGHFNWSGWMEGYDMAMGIHTPSSSIIGSYWKDCYEVISRCNVLIANIDRVDMDASQKAIYQAEAKTIRALMYINLTMTYQDVPFLTAPLTIDEAECEKTDRAAIVAHVMTDLQDAAEVLPQNASSRGHITKGAALSLLGRVALYNEKWDDAIAAYKQVQGLGYSLDPSYAKLFTQSGETSPEIIFAVRYEGPGMSEGAAFNAHWNTPLEAMNGTIDLADAYYCKDGKPTTDTKIAELNGGGGLDVSKPNPAHFENRDPRLYSTLFVPGMLWNGKGGIDTSASNPYANVYGGAAASLSTVYVYKYFDPTDTSNSWDNGQDFYVVRYAEVLLSLAEAMVQKGGYVYSDVTALVNEVRQRADVNMPTVEEVEGTSLSKDELLEVIKHERRVELAFEGLRLFDLYRWKELDKAVANIENERTMYGLAYEARKFNGERDYVWPLPTAELDTNKKLVQHDLWK
# What was measured:
# Assay in all cases: glycan array binding signal (z-score within array); higher = stronger binding
# Settings in all cases: glycan notation: IUPAC condensed, linker removed
# [1] = target: Gal(b1-4)GlcNAc(b1-3)Gal(b1-4)Glc
# Summary of the method: (§1)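 Glycan array binding is given as a within-array Z-score, which can be read as non-binding when negative. The arrays, 3228 of them, came from the Consortium for Functional Glycomics database and were retained only where the protein sequence was available. Z-scores were averaged across arrays of the same protein sequence at different concentrations or buffers and across linkers.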
# [2] = target: Gal(b1-4)GlcNAc(b1-3)Gal(b1-4)GlcNAc
# Summary of the method: as §1
# [3] = target: Gal(b1-4)GlcNAc(b1-3)Gal(b1-4)GlcNAc(b1-2)Man(a1-3)[Gal(b1-4)GlcNAc(b1-3)Gal(b1-4)GlcNAc(b1-2)Man(a1-6)]Man(b1-4)GlcNAc(b1-4)GlcNAc
# Summary of the method: as §1
# [4] = target: Gal(b1-4)GlcNAc(b1-3)Gal(b1-4)GlcNAc(b1-2)Man(a1-3)[Gal(b1-4)GlcNAc(b1-3)Gal(b1-4)GlcNAc(b1-2)Man(a1-6)]Man(b1-4)GlcNAc(b1-4)[Fuc(a1-6)]GlcNAc
# Summary of the method: as §1
# [5] = target: Gal(b1-4)GlcNAc(b1-3)Gal(b1-4)GlcNAc(b1-2)[Gal(b1-4)GlcNAc(b1-3)Gal(b1-4)GlcNAc(b1-6)]Man(a1-6)[Gal(b1-4)GlcNAc(b1-3)Gal(b1-4)GlcNAc(b1-2)Man(a1-3)]Man(b1-4)GlcNAc(b1-4)GlcNAc
# Summary of the method: as §1
# [6] = target: Gal(b1-4)GlcNAc(b1-3)Gal(b1-4)GlcNAc(b1-2)[Gal(b1-4)GlcNAc(b1-3)Gal(b1-4)GlcNAc(b1-6)]Man(a1-6)[Gal(b1-4)GlcNAc(b1-3)Gal(b1-4)GlcNAc(b1-2)Man(a1-3)]Man(b1-4)GlcNAc(b1-4)[Fuc(a1-6)]GlcNAc
# Summary of the method: as §1
# [7] = target: Gal(b1-4)GlcNAc(b1-3)Gal(b1-4)GlcNAc(b1-3)Gal(b1-4)GlcNAc
# Summary of the method: as §1
# [8] = target: Gal(b1-4)GlcNAc(b1-3)Gal(b1-4)GlcNAc(b1-3)Gal(b1-4)GlcNAc(b1-2)Man(a1-3)[Gal(b1-4)GlcNAc(b1-3)Gal(b1-4)GlcNAc(b1-3)Gal(b1-4)GlcNAc(b1-2)Man(a1-6)]Man(b1-4)GlcNAc(b1-4)GlcNAc
# Summary of the method: as §1
# [9] = target: Gal(b1-4)GlcNAc(b1-3)Gal(b1-4)GlcNAc(b1-3)Gal(b1-4)GlcNAc(b1-2)Man(a1-3)[Gal(b1-4)GlcNAc(b1-3)Gal(b1-4)GlcNAc(b1-3)Gal(b1-4)GlcNAc(b1-2)Man(a1-6)]Man(b1-4)GlcNAc(b1-4)[Fuc(a1-6)]GlcNAc
# Summary of the method: as §1
# [10] = target: Gal(b1-4)GlcNAc(b1-3)Gal(b1-4)GlcNAc(b1-3)Gal(b1-4)GlcNAc(b1-2)[Gal(b1-4)GlcNAc(b1-3)Gal(b1-4)GlcNAc(b1-3)Gal(b1-4)GlcNAc(b1-6)]Man(a1-6)[Gal(b1-4)GlcNAc(b1-3)Gal(b1-4)GlcNAc(b1-3)Gal(b1-4)GlcNAc(b1-2)Man(a1-3)]Man(b1-4)GlcNAc(b1-4)[Fuc(a1-6)]GlcNAc
# Summary of the method: as §1
# [11] = target: Gal(b1-4)GlcNAc(b1-3)Gal(b1-4)GlcNAc(b1-3)Gal(b1-4)GlcNAc(b1-3)Gal(b1-4)GlcNAc(b1-2)Man(a1-3)[Gal(b1-4)GlcNAc(b1-3)Gal(b1-4)GlcNAc(b1-3)Gal(b1-4)GlcNAc(b1-3)Gal(b1-4)GlcNAc(b1-2)Man(a1-6)]Man(b1-4)GlcNAc(b1-4)GlcNAc
# Summary of the method: as §1
# [12] = target: Gal(b1-4)GlcNAc(b1-3)Gal(b1-4)GlcNAc(b1-3)Gal(b1-4)GlcNAc(b1-3)Gal(b1-4)GlcNAc(b1-2)Man(a1-3)[Gal(b1-4)GlcNAc(b1-3)Gal(b1-4)GlcNAc(b1-3)Gal(b1-4)GlcNAc(b1-3)Gal(b1-4)GlcNAc(b1-2)Man(a1-6)]Man(b1-4)GlcNAc(b1-4)[Fuc(a1-6)]GlcNAc
# Summary of the method: as §1
# [13] = target: Gal(b1-4)GlcNAc(b1-3)Gal(b1-4)GlcNAc(b1-3)Gal(b1-4)GlcNAc(b1-3)Gal(b1-4)GlcNAc(b1-2)[Gal(b1-4)GlcNAc(b1-3)Gal(b1-4)GlcNAc(b1-3)Gal(b1-4)GlcNAc(b1-3)Gal(b1-4)GlcNAc(b1-6)]Man(a1-6)[Gal(b1-4)GlcNAc(b1-3)Gal(b1-4)GlcNAc(b1-3)Gal(b1-4)GlcNAc(b1-3)Gal(b1-4)GlcNAc(b1-2)Man(a1-3)]Man(b1-4)GlcNAc(b1-4)[Fuc(a1-6)]GlcNAc
# Summary of the method: as §1
# [14] = target: Gal(b1-4)GlcNAc(b1-3)Gal(b1-4)GlcNAc(b1-3)Gal(b1-4)GlcNAc(b1-3)Gal(b1-4)GlcNAc(b1-3)Gal(b1-4)GlcNAc(b1-2)Man(a1-3)[Gal(b1-4)GlcNAc(b1-3)Gal(b1-4)GlcNAc(b1-3)Gal(b1-4)GlcNAc(b1-3)Gal(b1-4)GlcNAc(b1-3)Gal(b1-4)GlcNAc(b1-2)Man(a1-6)]Man(b1-4)GlcNAc(b1-4)GlcNAc
# Summary of the method: as §1
# [15] = target: Gal(b1-4)GlcNAc(b1-3)Gal(b1-4)GlcNAc(b1-3)Gal(b1-4)GlcNAc(b1-3)Gal(b1-4)GlcNAc(b1-3)Gal(b1-4)GlcNAc(b1-2)Man(a1-3)[Gal(b1-4)GlcNAc(b1-3)Gal(b1-4)GlcNAc(b1-3)Gal(b1-4)GlcNAc(b1-3)Gal(b1-4)GlcNAc(b1-3)Gal(b1-4)GlcNAc(b1-2)Man(a1-6)]Man(b1-4)GlcNAc(b1-4)[Fuc(a1-6)]GlcNAc
# Summary of the method: as §1
# [16] = target: Gal(b1-4)GlcNAc(b1-3)Gal(b1-4)GlcNAc(b1-3)Gal(b1-4)GlcNAc(b1-3)Gal(b1-4)GlcNAc(b1-3)Gal(b1-4)GlcNAc(b1-2)[Gal(b1-4)GlcNAc(b1-3)Gal(b1-4)GlcNAc(b1-3)Gal(b1-4)GlcNAc(b1-3)Gal(b1-4)GlcNAc(b1-3)Gal(b1-4)GlcNAc(b1-6)]Man(a1-6)[Gal(b1-4)GlcNAc(b1-3)Gal(b1-4)GlcNAc(b1-3)Gal(b1-4)GlcNAc(b1-3)Gal(b1-4)GlcNAc(b1-3)Gal(b1-4)GlcNAc(b1-2)Man(a1-3)]Man(b1-4)GlcNAc(b1-4)[Fuc(a1-6)]GlcNAc
# Summary of the method: as §1
# [17] = target: Gal(b1-4)GlcNAc(b1-3)Gal(b1-4)GlcNAc(b1-3)Gal(b1-4)GlcNAc(b1-3)Gal(b1-4)GlcNAc(b1-3)Gal(b1-4)GlcNAc(b1-3)Gal(b1-4)GlcNAc(b1-2)Man(a1-3)[Gal(b1-4)GlcNAc(b1-3)Gal(b1-4)GlcNAc(b1-3)Gal(b1-4)GlcNAc(b1-3)Gal(b1-4)GlcNAc(b1-3)Gal(b1-4)GlcNAc(b1-3)Gal(b1-4)GlcNAc(b1-2)Man(a1-6)]Man(b1-4)GlcNAc(b1-4)GlcNAc
# Summary of the method: as §1
# [18] = target: Gal(b1-4)GlcNAc(b1-3)Gal(b1-4)GlcNAc(b1-3)GalNAc
# Summary of the method: as §1
# [19] = target: Gal(b1-4)GlcNAc(b1-3)Gal(b1-4)GlcNAc(b1-3)[Gal(b1-4)GlcNAc(b1-3)Gal(b1-4)GlcNAc(b1-6)]GalNAc
# Summary of the method: as §1
binder,measurement,setting,value
B1,glycan array binding signal (z-score),[1],-0.192
same,glycan array binding signal (z-score),[2],-0.46
same,glycan array binding signal (z-score),[3],2.71
same,glycan array binding signal (z-score),[4],0.489
same,glycan array binding signal (z-score),[5],0.282
same,glycan array binding signal (z-score),[6],0.227
same,glycan array binding signal (z-score),[7],-0.058
same,glycan array binding signal (z-score),[8],1.35
same,glycan array binding signal (z-score),[9],0.909
same,glycan array binding signal (z-score),[10],-0.078
same,glycan array binding signal (z-score),[11],6.18
same,glycan array binding signal (z-score),[12],0.053
same,glycan array binding signal (z-score),[13],3.38
same,glycan array binding signal (z-score),[14],2.78
same,glycan array binding signal (z-score),[15],1.07
same,glycan array binding signal (z-score),[16],9.28
same,glycan array binding signal (z-score),[17],0.22
same,glycan array binding signal (z-score),[18],-0.359
same,glycan array binding signal (z-score),[19],-0.061
